Assay results reported in PubChem BioAssay AID1468 (National Center for Advancing Translational Sciences (NCATS), 2008).
Out of some 280,000 compounds screened, about 1,100 (0.39%) were called active. The shares of active, inactive and inconclusive entries below differ from those in the screen. Calls follow the shape of the dose curve; as a rule, active = well fitted inhibition curve with a large enough effect; inconclusive = small, poorly fitted or top-dose-only effect, or effect the other way; inactive = flat fitted curve, though single readings scatter. No potency is given beside an inconclusive call; the fits are too rough.

The molecules below were run against Microtubule-associated protein tau (Homo sapiens) (UniProt P10636) (assay: qHTS for Inhibitors of Tau Fibril Formation, Fluorescence Polarization). Details: K18 P301L tau heparin fibrillization, Alexa594 FP, 6 h; series mostly up to 57.7 µM.
Method in brief: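 Human K18 P301L fragment (15 uM unlabeled plus 0.24 uM Alexa 594-labeled) in 100 mM sodium acetate pH 7 with compound, aggregation induced by 20 uM heparin for 6 hr at 37 C. ThT (30 uM) added for 1 hr, then Alexa 594 FP read.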
Also: nearly all actives have a fitted effect of over 55% in size.
Potency is read from the fitted curve at half-maximal effect; tags tell the direction and shape of the fitted curve.

UniProt P10636, sequence (P10636 whole entry, looked up, the tested form may be a part): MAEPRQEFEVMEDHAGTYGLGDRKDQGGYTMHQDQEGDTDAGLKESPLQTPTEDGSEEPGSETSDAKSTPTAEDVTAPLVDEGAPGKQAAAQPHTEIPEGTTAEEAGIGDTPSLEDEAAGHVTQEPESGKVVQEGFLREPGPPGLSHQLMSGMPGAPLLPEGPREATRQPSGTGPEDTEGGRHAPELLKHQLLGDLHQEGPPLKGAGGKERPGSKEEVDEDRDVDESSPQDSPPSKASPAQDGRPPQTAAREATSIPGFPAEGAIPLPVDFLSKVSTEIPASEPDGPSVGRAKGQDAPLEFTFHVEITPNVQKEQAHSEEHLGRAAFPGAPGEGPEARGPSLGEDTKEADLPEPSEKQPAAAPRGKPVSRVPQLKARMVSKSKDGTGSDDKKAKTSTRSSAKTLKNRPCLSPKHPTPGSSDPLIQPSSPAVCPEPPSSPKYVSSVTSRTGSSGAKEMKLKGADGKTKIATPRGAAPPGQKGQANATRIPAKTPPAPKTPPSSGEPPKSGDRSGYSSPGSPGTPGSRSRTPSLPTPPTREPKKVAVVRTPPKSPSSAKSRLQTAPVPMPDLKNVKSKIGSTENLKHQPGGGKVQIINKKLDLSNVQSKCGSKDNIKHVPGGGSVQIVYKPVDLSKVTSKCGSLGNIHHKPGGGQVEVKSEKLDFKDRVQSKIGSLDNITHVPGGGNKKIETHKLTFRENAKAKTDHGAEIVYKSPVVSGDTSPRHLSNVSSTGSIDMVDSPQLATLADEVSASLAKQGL

Row | SMILES | Potency
1 | O=C(Nc1nc(-c2ccccc2)nc2ccccc12)c1ccc(F)cc1 | inconclusive [inhibitor, single point]
2 | CCOC(=O)c1c(N)n(-c2ccc(N)cc2)c2nc3ccccc3nc12 | inactive
3 | O=[N+]([O-])c1ccc(Sc2cccc[n+]2[O-])c2nonc12 | inconclusive [inhibitor, partial curve]
4 | CCN(CC)C(=O)Cn1c(=O)n(-c2ccc(Cl)cc2)c(=O)c2c3c(sc21)CCCCC3 | inconclusive [activator, single point]
5 | O=C(/C=C/c1cccs1)Nc1nc(-c2ccccc2)cs1 | inconclusive [inhibitor, single point]
6 | N#Cc1c(-c2ccccc2)cc(-c2ccccc2)nc1SCC(O)CS(=O)(=O)Cc1ccccc1 (stereo unspecified) | inconclusive [inhibitor, partial curve]
7 | CCCn1nnc(NC(=S)NC(=O)c2ccc(-c3ccc(Br)cc3)o2)n1 | inactive
8 | C(=N\Nc1nc(Nc2ccccc2)nc(N2CCOCC2)n1)/c1c[nH]c2ccccc12 | inconclusive [activator, partial curve, poor fit]
9 | COc1ccccc1NS(=O)(=O)c1cccc(C(=O)N/N=C/c2cn(-c3ccccc3)nc2-c2ccccc2)c1 | inconclusive [inhibitor, single point]
10 | COC(=O)CNC(=O)CN1C(=O)N(c2ccccc2)C(N(O)C(=O)Nc2ccccc2)C1(C)C (stereo unspecified) | inactive
11 | CCOc1ccc(C2CC(=O)c3c([nH]c(C(=O)OCCOc4ccccc4)c3C)C2)cc1 (stereo unspecified) | inactive
12 | CS(=O)(=O)N1N=C(c2cccs2)CC1c1ccco1 (stereo unspecified) | inactive
13 | O=C(C1=C[C@H](c2ccccc2)C[C@H](OCc2ccc(CO)cc2)O1)N1CCN(Cc2ccc3c(c2)OCO3)CC1 | inconclusive [activator, single point]
14 | CCN(CC)C(=O)CSc1nc2ccccc2c(=O)n1CCC(=O)NCCc1ccc(OC)c(OC)c1 | inconclusive [inhibitor, full curve]
15 | CCC(=NCCc1c(C)[nH]c2ccc(C)cc12)C1=C(O)CC(c2ccccc2)CC1=O (stereo unspecified) | inconclusive [activator, partial curve]
16 | CC(=O)c1ccc(N2CCN(C(=O)/C=C/c3ccc(S(=O)(=O)NCc4ccco4)cc3)CC2)cc1 | inconclusive [activator, partial curve, poor fit]
17 | COc1ccccc1NC(=S)N/N=C1\CC(C)(C)Oc2ccc(O)cc21 | inconclusive [activator, partial curve]
18 | Cc1cc(C(=O)Nc2c(C)n(C)n(-c3ccccc3)c2=O)on1 | inconclusive [inhibitor, partial curve, poor fit]
19 | CC(C)NC(=O)COc1ccc(/C=N/NS(=O)(=O)c2ccccc2)cc1 | inconclusive [inhibitor, partial curve]
20 | S=c1[nH]c(-c2ccc(Cl)cc2)cs1 | inactive
21 | Cc1cc(C)nc(N2N=C(C(C)(C)C)CC2=O)n1 | inactive
22 | C=C1c2cccc(O)c2C(O)=C2C(=O)[C@]3(O)C(O)=C(C(N)=O)C(=O)[C@@H](N(C)C)[C@@H]3[C@@H](O)[C@H]12 | inconclusive [inhibitor, single point]

Row | SMILES | Potency
23 | CC1CCN(c2oc(-c3ccccc3Cl)nc2C#N)CC1 | inactive
24 | Cc1cccc(Sc2nc(-c3ccccc3)ccc2C#N)c1 | inconclusive [inhibitor, single point]
25 | COc1ccc(CCNC(=O)CCc2c(C)nc3cc(-c4ccc(Cl)cc4)nn3c2C)c(OC)c1 | inactive
26 | CCOC(=O)c1cnc(SCc2nc(N)nc(Nc3ccc(C)cc3)n2)nc1N | inactive
27 | Cc1ccc(SCc2[nH]nc3c2C2(CCSCC2)C(C#N)=C(N)O3)cc1 | inactive
28 | CCCC[n+]1c(-c2ccc(Cl)cc2Cl)csc1Nc1ccccc1 | inactive
29 | O=C(/C=C/c1ccco1)N1CCc2ccccc21 | inactive
30 | N#C/C(=C\c1ccc(O)c(O)c1)C(=O)NCCCc1ccccc1 | inconclusive [activator, partial curve]
31 | Cc1sc2nc(SCc3ccc(C(=O)O)cc3)n(Cc3ccco3)c(=O)c2c1C | inconclusive [activator, single point]
32 | Cc1cn(-c2cc(C(=O)Nc3ccc(C)c(NC(=O)C(=O)c4c[nH]c5ccccc45)c3)cc(C(F)(F)F)c2)cn1 | inconclusive [inhibitor, partial curve, poor fit]
33 | CCN(CC)C(=S)Nc1ccc(OC(F)F)cc1 | inactive
34 | CCOC(=O)N1CCN(C(=S)NC(=O)c2cncc(Br)c2)CC1 | inactive
35 | CCOC(=O)C(Cc1ccc(NC(=O)/C(=C/c2ccccc2)NC(=O)c2ccccc2)cc1)N1C(=O)c2ccccc2C1=O (stereo unspecified) | inconclusive [inhibitor, single point]
36 | NC(=O)CC(NC(=O)Cc1ccc(Br)cc1)c1ccc(NCCc2cccc(F)c2)c([N+](=O)[O-])c1 (stereo unspecified) | inconclusive [inhibitor, partial curve, poor fit]
37 | COc1ccccc1/C=C/C(=O)OC(C)CN1CCOCC1 (stereo unspecified) | inactive
38 | Cn1cc(/C=C2\SC(=S)N(N3CCOCC3)C2=O)c2ccccc21 | inconclusive [inhibitor, single point]
39 | Cc1ccc(C(=O)CSc2nsc(C)c2C#N)cc1 | inactive
40 | CNc1oc(Cc2ccccc2)nc1S(=O)(=O)c1ccccc1 | inconclusive [inhibitor, single point]
41 | COc1cccc(NC(=O)Cn2c(=O)c3c(ncn3Cc3ccccc3)n(Cc3ccccc3)c2=O)c1 | inconclusive [inhibitor, partial curve]
42 | COc1ccc(S(=O)(=O)c2c(N)n(Cc3ccco3)c3nc4ccccc4nc23)cc1 | inactive
43 | COc1cccc(CNS(=O)(=O)c2ccc3[nH]c4c(c3c2)CCCCC4)c1 | inconclusive [activator, full curve, poor fit]
44 | O=C1CN(C(=O)COC(=O)c2cccc(OCc3ccccc3)c2)c2ccccc2N1 | inconclusive [inhibitor, partial curve, poor fit]

Row | SMILES | Potency
45 | COc1ccc(NC(=O)Cn2cc(S(=O)(=O)N3CCC(C)CC3)c3ccccc3c2=O)cc1Cl | inconclusive [inhibitor, partial curve]
46 | Cc1ccccc1C(=O)Nc1cccc(OCc2cc(=O)n3c4c(sc3n2)CCCC4)c1 | inactive
47 | O=C(CSc1nc(Nc2ccccc2)nc(N2CCOCC2)n1)Nc1ccc([N+](=O)[O-])cc1 | inconclusive [inhibitor, partial curve]
48 | Cc1ccc(NC(=O)CN2C(=O)c3cccnc3Sc3ccccc32)cc1C | inactive
49 | C/C(C/C(C)=C1/SC(=S)NC1=O)=C1\SC(=S)NC1=O | inactive
50 | COc1ccc(CN(C(=O)c2ccccc2F)C2CCS(=O)(=O)C2)cc1 (stereo unspecified) | inconclusive [inhibitor, full curve, poor fit]
51 | CC(C)(C)c1nnc(NC(=O)c2cccnc2)s1 | inconclusive [inhibitor, partial curve]
52 | O=C(Nc1nc2c(F)cccc2s1)c1ccc(S(=O)(=O)N2CCOCC2)cc1 | inconclusive [inhibitor, partial curve, poor fit]
53 | O=C(N[C@@H](Cc1ccccc1)C(=O)OCc1ccccc1)c1nc[nH]c1C(=O)NC(c1ccccc1)c1ccccc1 | inconclusive [inhibitor, single point]
54 | COc1ccc(CN(C(=O)COc2ccccc2)c2ccccc2C(=O)O)cc1 | inactive
55 | S=C(NCCc1ccccc1)Nc1ccc(Nc2ccccc2)cc1 | inconclusive [activator, partial curve, poor fit]
56 | CCC(C)NC(=O)c1ccccc1-c1nc2ccccc2[nH]1 (stereo unspecified) | inconclusive [inhibitor, single point]
57 | O=C(Nc1ccc(-c2nc3ccccc3s2)cc1)c1cc(-n2cnnc2)ccc1Cl | inconclusive [inhibitor, partial curve]
58 | CCOC(=O)Cc1cc(C(=O)Nc2ccc(Br)cc2)sc1-c1ccc(C)cc1 | inconclusive [inhibitor, partial curve]
59 | c1ccc(-n2nnnc2CN2CCOCC2)cc1 | inactive
60 | O=c1cc(-c2ccc(O)c(O)c2)oc2ccccc12 | inconclusive [inhibitor, single point]
61 | CN(C)c1cc[n+](CC(=O)c2ccc(-c3ccccc3)cc2)cc1 | inconclusive [inhibitor, single point]
62 | Cc1ccc(-c2cn(S(=O)(=O)c3cccc([N+](=O)[O-])c3)nc2N)cc1 | inconclusive [inhibitor, single point]
63 | CC1CCN(S(=O)(=O)c2ccc3c(c2)CCN3C(=O)Nc2cccc(Br)c2)CC1 | inconclusive [inhibitor, full curve]
64 | O=C(Nc1ccccc1)OCc1cc(-c2ccc(Cl)cc2)on1 | inconclusive [inhibitor, single point]
65 | COc1ccc(-c2nc(SCc3ccccc3)n(C(=O)c3ccco3)n2)cc1 | inconclusive [inhibitor, partial curve, poor fit]
66 | Cc1cccc(NC(=O)CN2C(=O)N/C(=C\c3ccc(-c4cccc(C(=O)O)c4)o3)C2=O)c1 | inconclusive [activator, single point]
